In PubChem BioAssay (NCI):
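In this assay, cells in 96-well plates receive the compound at five concentrations for 48 hours. Endpoints are linearly interpolated between the surrounding concentrations. Abbreviation: GI50, concentration required for 50% inhibition of growth. At the TGI there is no net growth.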

System: NCI-H322M lung
Experiment: NCI anticancer screen, dose series, 48 h

Compared with `O=C(NCc1ncc[nH]1)c1ccc(-c2nc3ccc4[nH]ncc4c3c3c2CCCC3)cc1`, `C/C(=C(/c1ccc(O)cc1)c1ccc(OCCN(C)C)cc1)c1ccc(Cl)cc1` is 18-fold higher in GI50: 1.43 µM for the first, 25.8 µM for the second.

Going from `Cc1ccccc1NC(=O)Nc1nc2ccc([N+](=O)[O-])cc2s1` to `C#C[C@]1(O)CC[C@H]2[C@@H]3CC=C4c5sc(Nc6ccc(Cl)cn6)nc5CC[C@]4(C)[C@H]3CC[C@@]21C`, the GI50 rises from 2.71 µM to 7.72 µM (2.8-fold).

Going from `O=C(NCc1ncc[nH]1)c1ccc(-c2nc3ccc4[nH]ncc4c3c3c2CCCC3)cc1` to `C/C(=C(/c1ccc(O)cc1)c1ccc(OCCN(C)C)cc1)c1ccc(Cl)cc1`, the TGI rises from 17.3 µM to 94.7 µM (5.5-fold).

Compared with `Cc1ccccc1NC(=O)Nc1nc2ccc([N+](=O)[O-])cc2s1`, `C#C[C@]1(O)CC[C@H]2[C@@H]3CC=C4c5sc(Nc6ccc(Cl)cn6)nc5CC[C@]4(C)[C@H]3CC[C@@]21C` is higher in TGI: 8.53 µM for the first, > 100 µM for the second.
